{
  "source": "the supplement of paper PMC12632987",
  "binders": {"B1": {"name": "LC3A_127_196 (protein)", "chain": "EKQKLLDEAIEIAEKLSELLDKPDFDLEEAKKLAEELKKVLEKLVKLDPSFQPALEDAEQLLELLEKMETLDEAEREEAREHMSMLVEGIIIELLSLSLK"}, "B2": {"name": "LC3A_free_8_2477 (protein)", "chain": "KREELVKKIVEGLDELEEKVREKAKELGLDELDILDLELLIGSAIAEVISLSDESPEEILKALKEGLEEIIEEAAEISEELAKVVKEESEKILKEAEKLM"}, "B3": {"name": "LC3A_141_368 (protein)", "chain": "TTLTITTDIGRASLDEIVAKMDELEEAALAAHRELGGGRVRVTVTITVKNLKTGETTTITEEFEADEEELELIMEGVLIEVASYALTEDAEVTVTVTLEG"}, "B4": {"name": "LC3A_3_1881 (protein)", "chain": "YDEEVKEAIEELKKAGASEETIEAFKKAAELLKERGYYEALKTLIEEVKELLSLSDELLLDFLEEVLDVIENEDLNEEELIKRIKEIARLTLNEGEIIEL"}, "B5": {"name": "LC3A_3_1398 (protein)", "chain": "MEELKKKILETLKKFGASEEVLKEAEKVLKALEKKGYEKAIKELLKEVEKLKNASDEILLDFFKDVLNYVENNDDSEEEVVKFIKEEARIALNEEEIEEL"}, "B6": {"name": "LC3A_free_39_2192 (protein)", "chain": "SAAERKAARDEILALAAEEGEEAKELAEELIELIGDELERLKELLELLKEAKEAGVDVKELLKEALALAKELKAQGKSREEIFEEVKALIRDRINLIPID"}, "B7": {"name": "LC3A_132_307 (protein)", "chain": "GEELAKKAIKVAKEALELAKTDDTKKEEILKLLDELKKLLEELAKKASPELAAKTFKEVMDILLEISRIASKKGWDEVADEAFALAALAAQLAADAEKKL"}, "B8": {"name": "LC3A_3_1603 (protein)", "chain": "SAELVEALLARLEAAGFPPEVLAAARELLEALAAKGFEEAARTAAEELLALRDAPPEVLLATLAELLEIVKTEDLDEEEVIERIREEFRVAALEGEIEEL"}, "B9": {"name": "LC3A_free_46_2368 (protein)", "chain": "PRAEIDIDFLVETKEKAEKLAKELTAAIKAIAAEHGVKVEIKVEITKNPDGTYALKINITLEADDLETLQAAVNAIIDAIDKIAEEFNVSYIISVEIIDE"}, "B10": {"name": "LC3A_28_959 (protein)", "chain": "SALDKELEATLAAAKAAAAAGKAEVFTINVPGTANEEDIEKVIKALKEIAEILKDVKGSAIIINVDAGVKQEHIDKLADAAEEIEKKYPNITVIIALDEE"}, "B11": {"name": "LC3A_3_1721 (protein)", "chain": "MEEIRERALAVLREKGASPETIAAVAALLDALAERGFEEAAETLLEKLEELEGVSSEDLLAALQDLLHLVTEEDLSEEEVIAAIEEEFRVLKEALEIEEL"}, "B12": {"name": "LC3A_28_929 (protein)", "chain": "MTKEEIIKHIEEVAKEAIEKGEDAFIEIEIGSETTVEEAKEIMDKLEEEAKKLSEAGLKVSVLIDLDNVSQEVLDTVLDKADEINEKYPLVNVIIALDEE"}, "B13": {"name": "LC3A_17_597 (protein)", "chain": "MEELKEELEKLLKEAEALIEELKKLDPSAYPELKKKLEEAKKLIKEGKLKEAAEKLEELAREMADIFEELEEKGVEEAAPLYMEAGGIEVEATRLLLKLD"}, "B14": {"name": "LC3A_free_39_2254 (protein)", "chain": "AAAEVAAILAELRAAAAQASPAVRAAVLALAERLADNPELLRALLELLREALAKGPEAVERLGAWAAEAVARIDAGEDPEAVARELLRLGRADVEIEEID"}, "B15": {"name": "LC3A_3_1851 (protein)", "chain": "MEEIIEEIKKLLESLGRSEETIEAAMELAELLAERGYKEALEKLLEELKKLKDLPDEILLAMFEDILRALKTEDLSEEEAIELIEEEAEIARNEAEIEEL"}, "B16": {"name": "LC3A_free_39_2264 (protein)", "chain": "SEEEIKKAEEEVRKLAAKTDPETKEAILRLTEYIKDNAEKLKKLAELLERAIEKGPEAVRILGEFAKEAVERIDAGEPVEEAFEELIKLSEAAIEIEEID"}, "B17": {"name": "LC3A_28_698 (protein)", "chain": "SRVDEDIERARKIAEEAIAKGEDALIELTIRPDTTAEDVDRILATIRELAEKMSKTGKLYVVVDVESGVDQANIDRIADELDKLMEEIPNLTAVIALDED"}, "B18": {"name": "LC3A_28_780 (protein)", "chain": "NMLEENIKKALEEAKKAAEKGEEVTLEITIPATATQEDIDKVIEALEEIAELSKNMKSVDVVIDVEAGVDQEYITKIAEKGDELSAKNPKVTVVIALEEE"}, "B19": {"name": "LC3A_28_1328 (protein)", "chain": "SHIEEELAKARKAAEEALAKGEEALIEVNVTGSTTLEEAEELMEKLKEIAKKYAPKIKVSIVINLSSSVSQEVEDLIAEKAEEIEEELPNVTVIIALDED"}, "B20": {"name": "LC3A_128_234 (protein)", "chain": "EEKRKLILKILEEARKLAEELSKSEVGKELFEKLIKELDKAIKLLKEGGPLEEVLKELTKADEIADKIIKETDHDRLKLNELSLLIGEAIALVQDMIADE"}, "B21": {"name": "LC3A_127_176 (protein)", "chain": "ELRELLEKLLEVAEKLSEELSKPDYDEEEIEKLIEEAKRLAKEALKLDPRAQPVLDAAEDIEKEFEKLKKAPEEEKEEIKEHMAMLAESLIIEVLSLLLR"}, "B22": {"name": "LC3A_45_1960 (protein)", "chain": "MAEAEVYVLVPEEEFDKVVEIIKEEIERINKERGLEASIDEEELKKAREEAKKEGEALVKVTIRSEDMQAALDAADEISDEVEKKSSPKVATIIAYREEP"}, "B23": {"name": "LC3A_free_46_2331 (protein)", "chain": "VKLEIDVDLLHDDRAAMEAAVADIEAAAKEIAAKYGAEVKIDVTISQDPDGSWFAEIRITVTAPTLETAKAIETDLIDAIEEIADAHGIASIISSEIEEL"}, "B24": {"name": "LC3A_28_910 (protein)", "chain": "SAVEAAVAAAIAEAEAAAARGEPAVVTLRIDHADVEEARAAARAALTRLKEVALKLKGVTIIVDVPEHAADAVTAVADEVQAELLKKNPSNHIIVAVEEP"}, "B25": {"name": "LC3A_45_1927 (protein)", "chain": "MYKATVDLLVPKELAEEAYKLIKEKLEELQKKYGPELKVDWETLEKSYEASKDEEEVYFEVKIYHPDKQTALDSAVELEDALQKAFGGKIASIISIEEVP"}, "B26": {"name": "LC3A_28_744 (protein)", "chain": "MSIEEEIERAIAQAREAAAAGESAVITITVPGTANEEDIEKVIEALYEIAEILKDVPDQAIIVDIDGKLDPKLQQKLMDAGDEIEKKYPNVTVIFALDEE"}, "B27": {"name": "LC3A_45_1957 (protein)", "chain": "MYEAVVLALVPEELFDEAVAVLRETSERLSKERGVEVTIDEEALEEARKEAEENGEALLEVTVRSEDKDEALDAASEISDALEAALPDRVATVIAYKEVP"}, "B28": {"name": "LC3A_3_1784 (protein)", "chain": "MEEKKEELLKKLKEAGHSEETIKAAEEVLKLLIEKGYEEAFETFIEEMEELIDLPDEILLDMLKEALELLKTNDLSEEEVKEKIKELAELARNEGEIIEL"}, "B29": {"name": "LC3A_147_465 (protein)", "chain": "KKYEVVLDVLVKDLTPELLKDFEELAEEIKEKFPDAEVELKVETDPEDPSLTLVTLTVTVDTEEDAEKILDFLDEKEEELEKKYSDQILASMISKQEVEP"}},
  "note": "In all, about 2,300 sequences were measured (“median log2 fold change of GCK-ALFA target abundance (FLAG IP / Myc IP barcode read proportion)”: median about 0.095, lowest 2% from about -0.47 on). Some of the results follow.",
  "data": [
    {"molecular_target": "MAP1LC3A, Q9H492", "experiment": "median log2 fold change of GCK-ALFA target abundance (FLAG IP / Myc IP barcode read proportion) (log2 ratio); each designed protein is fused to an ALFA-tag nanobody in HEK293 cells to bring the named protein to FLAG-tagged glucokinase (GCK); Myc marks an untargeted standard; higher = target protein stabilised (more abundant)", "conditions": "target protein: 3xFLAG-MCP-GCK-ALFA reporter; HEK293 landing pad (RPLP)", "outline": "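Sequencing of reverse-transcribed, amplified circular RNA barcodes from anti-FLAG and anti-Myc immunoprecipitates provided the readout for an ALFA-nanobody-fused binder library recombined into HEK293 landing-pad cells. Those cells were induced with 2 μg mL^−1 doxycycline, transfected with a plasmid expressing a FLAG-tagged target and a Myc-tagged standard, and lysed after 48 h. Target abundance is the per-binder median log2 ratio of FLAG to Myc barcode read proportions. Only barcodes at a proportion of ≥10^−7 in both replicates and binders with ≥3 barcodes per replicate were kept, with a 10^−6 pseudocount added before the two replicates were pooled.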", "values": [
      {"binder": "B1", "median log2 fold change": 0.131},
      {"binder": "B2", "median log2 fold change": -0.0519},
      {"binder": "B3", "median log2 fold change": -0.781},
      {"binder": "B4", "median log2 fold change": 0.111},
      {"binder": "B5", "median log2 fold change": 0.0441},
      {"binder": "B6", "median log2 fold change": 0.281},
      {"binder": "B7", "median log2 fold change": 0.268},
      {"binder": "B8", "median log2 fold change": 0.233},
      {"binder": "B9", "median log2 fold change": -0.0223},
      {"binder": "B10", "median log2 fold change": 0.0876},
      {"binder": "B11", "median log2 fold change": 0.169},
      {"binder": "B12", "median log2 fold change": -0.171},
      {"binder": "B13", "median log2 fold change": 0.249},
      {"binder": "B14", "median log2 fold change": 0.3},
      {"binder": "B15", "median log2 fold change": 0.179},
      {"binder": "B16", "median log2 fold change": 0.246},
      {"binder": "B17", "median log2 fold change": -0.304},
      {"binder": "B18", "median log2 fold change": 0.143},
      {"binder": "B19", "median log2 fold change": 0.198},
      {"binder": "B20", "median log2 fold change": 0.149},
      {"binder": "B21", "median log2 fold change": -0.13},
      {"binder": "B22", "median log2 fold change": 0.0892},
      {"binder": "B23", "median log2 fold change": -0.0171},
      {"binder": "B24", "median log2 fold change": -0.0883},
      {"binder": "B25", "median log2 fold change": 0.0631},
      {"binder": "B26", "median log2 fold change": 0.0682},
      {"binder": "B27", "median log2 fold change": 0.0666},
      {"binder": "B28", "median log2 fold change": 0.404},
      {"binder": "B29", "median log2 fold change": -0.192}
    ]}
  ]
}
